# Data as given in article PMC5892938.
# The other results are listed elsewhere or left out. At the low end of the ranking, values are background and their order means little.
# Biological target: GST-SBP-SLBP (stem-loop binding protein) (UniProt Q14493)
# Assay: targeted RNA Bind-n-Seq;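 also: DESeq read counts versus GST-SBP nonspecific binding control pulldown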
# Conditions: RBNS binding buffer: 25 mM Tris pH 7.5, 150 mM KCl, 3 mM MgCl2, 0.1% Tween, 0.5 mg/mL BSA, 1 mM DTT; 27 nM protein, 750 pM RNA pool; temperature not stated; high values mean tight binding
row,Sequence,binding signal (log2 fold change)
1,GGUCACGUCUCAAUCAACUCAGUUUCCAGGGAAAACCCUGGCUUAUUCAACAGCUCGCAGUCAAG,0.221
2,GGUCACGUCUCAAUCAACUCAAUAGAGGGGGGGAAAACCCCUUUACCCUCAAACUCAACAGCUCGCAGUCAAG,0.319
3,GGUCACGUCUCAAUCAACUCAUCCCCCAGGGAAACCCCUGGCAAUUUCAACAGCUCGCAGUCAAG,-0.148
4,GGUCACGUCUCAAUCAACUCAAUCCCCAGGGAAAUCCCUGGUAUUCUCAACAGCUCGCAGUCAAG,-0.0545
5,GGUCACGUCUCAAUCAACUCAACUUCAGGAGUUUACUCCUGCAUACUCAACAGCUCGCAGUCAAG,0.0462
6,GGUCACGUCUCAAUCAACUCAUCUUCCAGGGAAAGCCCUGGCAUUUUCAACAGCUCGCAGUCAAG,-0.24
7,GGUCACGUCUCAAUCAACUCUUCUCCCAGGGAAACCCCUGGCUAAUUCAACAGCUCGCAGUCAAG,-0.24
8,GGUCACGUCUCAAUCAACUCUCAAGAGGGGGGGAAAACCCCUUUACCCUCCAAUUCAACAGCUCGCAGUCAAG,-0.0066
9,GGUCACGUCUCAAUCAACUCUUUCCCCAGGGAAAACCCUGGUUAUUUCAACAGCUCGCAGUCAAG,-0.222
10,GGUCACGUCUCAAUCAACUCAAUUCCCAGGGAAAGCCCUGGUUUUUUCAACAGCUCGCAGUCAAG,-0.298
11,GGUCACGUCUCAAUCAACUCAGGUCCAGGAGUUUUCUCCUGCAAAUUCAACAGCUCGCAGUCAAG,-0.0771
12,GGUCACGUCUCAAUCAACUCCCACGAGGGGGGGAAAACCCCUUUACCCUCCAAAUCAACAGCUCGCAGUCAAG,-0.0397
13,GGUCACGUCUCAAUCAACUCAUCGUCCAGGGAAAUCCCUGGUUUUUUCAACAGCUCGCAGUCAAG,-0.0179
14,GGUCACGUCUCAAUCAACUCAAUCGAGGGGGGGAAAACCCCUUUGCCCUCAACAUCAACAGCUCGCAGUCAAG,-0.0608
15,GGUCACGUCUCAAUCAACUCACACGAGGGGGGGAAAACCCCUUUGCCCUCACAUUCAACAGCUCGCAGUCAAG,-0.0607
16,GGUCACGUCUCAAUCAACUCUUCGUCAGGAGUUUACUCCUGCAAUUUCAACAGCUCGCAGUCAAG,0.261
17,GGUCACGUCUCAAUCAACUCUACUUCCAGGGAAAUCCCUGGCUUACUCAACAGCUCGCAGUCAAG,-0.0499
18,GGUCACGUCUCAAUCAACUCAUCCCCAGGAGUUUUCUCCUGUAGUCUCAACAGCUCGCAGUCAAG,0.234
19,GGUCACGUCUCAAUCAACUCUAUCCCAGGAGUUUUCUCCUGCAAACUCAACAGCUCGCAGUCAAG,0.00195
20,GGUCACGUCUCAAUCAACUCUUCUCCAGGAGUUUUCUCCUGCAAUUUCAACAGCUCGCAGUCAAG,0.00657
21,GGUCACGUCUCAAUCAACUCUUCCUCCAGGGAAACCCCUGGUUAUCUCAACAGCUCGCAGUCAAG,0.158
22,GGUCACGUCUCAAUCAACUCCCACGAGGGGGGGAAAACCCCUUUACCCUCACCAUCAACAGCUCGCAGUCAAG,-0.0344
23,GGUCACGUCUCAAUCAACUCAUUCCCAGGAGUUUGCUCCUGCAAUUUCAACAGCUCGCAGUCAAG,0.0804
24,GGUCACGUCUCAAUCAACUCAUUUUCCAGGGAAAGCCCUGGCAAUCUCAACAGCUCGCAGUCAAG,-0.00336

row,Sequence,binding signal (log2 fold change)
1,GGUCACGUCUCAAUCAACUCUAUUCCCAGGGAAAACCCUGGUUAUUUCAACAGCUCGCAGUCAAG,0.0306
2,GGUCACGUCUCAAUCAACUCAUUCCCCAGGGAAAGCCCUGGCAUUUUCAACAGCUCGCAGUCAAG,0.0455
3,GGUCACGUCUCAAUCAACUCUUCCUCCAGGGAAAUCCCUGGCUUAUUCAACAGCUCGCAGUCAAG,-0.196
4,GGUCACGUCUCAAUCAACUCUUCUUCAGGAGUUUUCUCCUGUAUUCUCAACAGCUCGCAGUCAAG,-0.0332
5,GGUCACGUCUCAAUCAACUCAGUUUCAGGAGUUUGCUCCUGCUUUUUCAACAGCUCGCAGUCAAG,0.122
6,GGUCACGUCUCAAUCAACUCUAUUUCAGGAGUUUCCUCCUGCAAUCUCAACAGCUCGCAGUCAAG,0.204
7,GGUCACGUCUCAAUCAACUCUACUUCCAGGGAAACCCCUGGCUUUUUCAACAGCUCGCAGUCAAG,0.2
8,GGUCACGUCUCAAUCAACUCUUCCCCAGGAGUUUCCUCCUGUAUUUUCAACAGCUCGCAGUCAAG,-0.0432
9,GGUCACGUCUCAAUCAACUCUUCCUCAGGAGUUUUCUCCUGCUAUGUCAACAGCUCGCAGUCAAG,0.151
10,GGUCACGUCUCAAUCAACUCUUUUUCAGGAGUUUACUCCUGUUUUUUCAACAGCUCGCAGUCAAG,-0.0162
11,GGUCACGUCUCAAUCAACUCAUCUUCCAGGGAAAGCCCUGGUUUAUUCAACAGCUCGCAGUCAAG,-0.055
12,GGUCACGUCUCAAUCAACUCUUUUCCAGGAGUUUCCUCCUGUAUAUUCAACAGCUCGCAGUCAAG,-0.0999
13,GGUCACGUCUCAAUCAACUCCCAAGAGGGGGGGAAAACCCCUUUACCCUCCUUAUCAACAGCUCGCAGUCAAG,-0.347
14,GGUCACGUCUCAAUCAACUCAUCUUCCAGGGAAAUCCCUGGCUUACUCAACAGCUCGCAGUCAAG,-0.0632
15,GGUCACGUCUCAAUCAACUCUAUUUCCAGGGAAAGCCCUGGCAUAUUCAACAGCUCGCAGUCAAG,0.1
16,GGUCACGUCUCAAUCAACUCUUCUUCCAGGGAAAUCCCUGGCGUUUUCAACAGCUCGCAGUCAAG,-0.0645
17,GGUCACGUCUCAAUCAACUCUUUCGCAGGAGUUUACUCCUGGUUAUUCAACAGCUCGCAGUCAAG,-0.173
18,GGUCACGUCUCAAUCAACUCAAGUCCCAGGGAAAACCCUGGCUAAUUCAACAGCUCGCAGUCAAG,0.127
19,GGUCACGUCUCAAUCAACUCUCACGAGGGGGGGAAAACCCCUUUACCCUCAACUUCAACAGCUCGCAGUCAAG,0.363
20,GGUCACGUCUCAAUCAACUCAUUCCCAGGAGUUUUCUCCUGUAAUUUCAACAGCUCGCAGUCAAG,0.0677
21,GGUCACGUCUCAAUCAACUCAUCUUCCAGGGAAAUCCCUGGUUUACUCAACAGCUCGCAGUCAAG,-0.0538
22,GGUCACGUCUCAAUCAACUCACUAGAGGGGGGGAAAACCCCUUUACCCUCAACCUCAACAGCUCGCAGUCAAG,0.103
23,GGUCACGUCUCAAUCAACUCCUCAGAGGGGGGGAAAACCCCUUUACCCUCGUUCUCAACAGCUCGCAGUCAAG,-0.283
